Results taken from patent US20070087400A1, “Covalent tethering of functional groups to proteins and substrates therefor” (priority 2004, published 2007).

Legend:
DhaA.H272F = DhaA.H272F (Rhodococcus rhodochrous, UniProt P0A3G2, H272F); assay: In vitro binding of Cl-alkanes with functional groups, SDS-PAGE with fluoroimager or HRP-streptavidin; conditions: 15 minutes at room temperature
From the text: (§1) Then the proteins were resolved on SDS-PAGE.

DhaA.WT [1] = molecular target: T1, DhaA.WT (Rhodococcus rhodochrous, UniProt P0A3G2); assay: as above; conditions: 15 minutes at room temperature
From the text: as §1

DhaA.WT [2] = molecular target: T1, DhaA.WT; assay: HPLC analysis of Cl-alkane hydrolysis; type: biochemical
DhaA.H272F-Flag = molecular target: T2, DhaA.H272F-Flag (Rhodococcus rhodochrous, UniProt P0A3G2, H272F); type: cell-based; conditions: 60 minute treatment
T2 construct: […]; expressed in transfected cells; host or cells: CHO-K1

DhaA.WT [3] = molecular target: T1, DhaA.WT; assay: Hydrolysis of Cl-alkanes, pH-indicator dye (phenol red) assay; type: biochemical
From the text: To study the effect of a point mutation on the activity of DhaA (WT or mutant) hydrolysis of Cl-alkanes, a pH-indicator dye system as described by Holloway et al. (1998) was employed.

Molecule	binding to DhaA.H272F (DhaA.H272F)	binding to DhaA.WT (DhaA.WT [1])	hydrolysis by DhaA.WT (HPLC) (DhaA.WT [2])	fraction of DhaA.H272F-Flag protein expressed in CHO-K1 cells that was labeled (DhaA.H272F-Flag)	hydrolysis by DhaA.WT (DhaA.WT [3])
O=C(NCCOCCOCCCCCCCl)c1ccc(-c2c3ccc(=O)cc-3oc3cc(O)ccc23)c(C(=O)O)c1 [N-{2-[2-(6-Chlorohexyloxy)-ethoxyl-ethyl}-fluorescein-5-amide]	bound to DhaA.H272F	but not to DhaA.WT	very efficiently hydrolyzed		
O=C(CCCC[C@@H]1SC[C@@H]2NC(=O)N[C@@H]21)NCCOCCOCCCCCCCl [biotin-C10H21NO2—Cl]	bound to DhaA.H272F	but not to DhaA.WT		about 80%	efficiently hydrolyzed
N-{2-[2-(6-Chlorohexyloxy)-ethoxy]-ethyl}-tetramethylrhodamine-5-(and -6)-amide	bound to DhaA.H272F	but not to DhaA.WT			
